This note sets out measurements from the supplement of paper PMC4604168 (melanoma cell lines).

The structures appear in SMILES notation. The list shows a part of the results. Many values rest on one well or one pass, so single values are uncertain.
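Further: cells treated in 1,536-well plates, then fixed and DAPI-stained, with nuclei counted from automated high-throughput microscope images.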

This assay concerns IST-MEL1. As to the kind of experiment: cell count relative to DMSO control; melanoma cells; higher = more viable cells. Conditions: library dose: standard library concentration; 72 h.
`CC[C@]1(O)C[C@H]2CN(CCc3c([nH]c4ccccc34)[C@@](C(=O)OC)(c3cc4c(cc3OC)N(C=O)[C@H]3[C@@](O)(C(=O)OC)[C@H](OC(C)=O)[C@]5(CC)C=CCN6CC[C@]43[C@@H]65)C2)C1` [vincristine] + CS(=O)(=O)c1ccc(C(=O)Nc2ccc(Cl)c(-c3ccccn3)c2)c(Cl)c1 [vismodegib] (first compound 0.0005 µM, partner dose 5 µM): the cell count amounted to 94.5%. Then `CC[C@]1(O)C[C@H]2CN(CCc3c([nH]c4ccccc34)[C@@](C(=O)OC)(c3cc4c(cc3OC)N(C=O)[C@H]3[C@@](O)(C(=O)OC)[C@H](OC(C)=O)[C@]5(CC)C=CCN6CC[C@]43[C@@H]65)C2)C1` [vincristine] + C#Cc1cccc(Nc2ncnc3cc(OCCOC)c(OCCOC)cc23)c1 [erlotinib] (first compound 0.0005 µM, partner dose 4 µM), with 36.8%. The value for `Cc1cc(Nc2cc(N3CCN(C)CC3)nc(Sc3ccc(NC(=O)C4CC4)cc3)n2)n[nH]1` [Tozasertib] + Cc1cn(-c2cc(NC(=O)c3ccc(C)c(Nc4nccc(-c5cccnc5)n4)c3)cc(C(F)(F)F)c2)cn1 [nilotinib] (first compound 0.03 µM, partner dose 1 µM) was 88.4%. Regarding `Cc1cc(Nc2cc(N3CCN(C)CC3)nc(Sc3ccc(NC(=O)C4CC4)cc3)n2)n[nH]1` [Tozasertib] + O=C(O)C(=O)Nc1sc2c(c1C(=O)O)CCNC2 [TCS401] (first compound 0.03 µM, partner dose 8.33333 µM), the cell count was 110%. The value for `Cc1cc(Nc2cc(N3CCN(C)CC3)nc(Sc3ccc(NC(=O)C4CC4)cc3)n2)n[nH]1` [Tozasertib] + O=S(=O)(c1ccccc1)N(CC(F)(F)F)c1ccc(C(O)(C(F)(F)F)C(F)(F)F)cc1 [T0901317] (first compound 0.03 µM, partner dose 7 µM) was 87.7%; that for `CC[C@]1(O)C[C@H]2CN(CCc3c([nH]c4ccccc34)[C@@](C(=O)OC)(c3cc4c(cc3OC)N(C=O)[C@H]3[C@@](O)(C(=O)OC)[C@H](OC(C)=O)[C@]5(CC)C=CCN6CC[C@]43[C@@H]65)C2)C1` [vincristine] + O=C(/C=C/c1cccnc1)NCCCCC1CCN(C(=O)c2ccccc2)CC1 [FK866] (first compound 0.0005 µM, partner dose 0.05 µM) was 60.6%. The value for `Cc1cc(Nc2cc(N3CCN(C)CC3)nc(Sc3ccc(NC(=O)C4CC4)cc3)n2)n[nH]1` [Tozasertib] + OCCn1cc(-c2cnc3nnn(Cc4ccc5ncccc5c4)c3n2)cn1 [PF04217903] (first compound 0.03 µM, partner dose 5 µM) was 154%; that for `CC[C@]1(O)C[C@H]2CN(CCc3c([nH]c4ccccc34)[C@@](C(=O)OC)(c3cc4c(cc3OC)N(C=O)[C@H]3[C@@](O)(C(=O)OC)[C@H](OC(C)=O)[C@]5(CC)C=CCN6CC[C@]43[C@@H]65)C2)C1` [vincristine] + C[C@@H]1CCN(C(=O)CC#N)C[C@@H]1N(C)c1ncnc2[nH]ccc12 [CP690550] (first compound 0.0005 µM, partner dose 5 µM) was 80.8%.

Compound `Cc1cc(Nc2cc(N3CCN(C)CC3)nc(Sc3ccc(NC(=O)C4CC4)cc3)n2)n[nH]1` [Tozasertib] + CCCCCCCCCCCCCCCCCCOP(=O)([O-])OC1CC[N+](C)(C)CC1 [Perifosine] (first compound 0.03 µM, partner dose 2 µM) had a cell count of 79.4%.

Consider `CC[C@]1(O)C[C@H]2CN(CCc3c([nH]c4ccccc34)[C@@](C(=O)OC)(c3cc4c(cc3OC)N(C=O)[C@H]3[C@@](O)(C(=O)OC)[C@H](OC(C)=O)[C@]5(CC)C=CCN6CC[C@]43[C@@H]65)C2)C1` [vincristine] + CCCS(=O)(=O)Nc1ccc(F)c(C(=O)c2c[nH]c3ncc(Cl)cc23)c1F [PLX4720] (first compound 0.0005 µM, partner dose 0.4 µM), for which the cell count was determined as 93.3%. In turn, `Cc1cc(Nc2cc(N3CCN(C)CC3)nc(Sc3ccc(NC(=O)C4CC4)cc3)n2)n[nH]1` [Tozasertib] + Cc1nc(Nc2ncc(C(=O)Nc3c(C)cccc3Cl)s2)cc(N2CCN(CCO)CC2)n1 [dasatanib] (first compound 0.03 µM, partner dose 0.02 µM) registered a cell count of 54.3%.
